In all, about 150,000 compounds went through this assay and about 540 (0.36%) showed an effect of 50% or more. Some of the results follow.

The test system of the assay is Plasmodium falciparum. In words: Primary screen in NF54 nanoGlo assay, in single point, at 2uM, 72h; a lower Z score goes with more inhibition. Conditions: timepoint 72 hour. The assay is classed as functional, Erythrocyte.
Broadly, the % Inhibition is the change of the read-out against control, counted positive when it falls. For `COc1cc(C(=O)NCc2c3c(c(O)c4c2OCO4)C(=O)N(C)CC3)cc2c1OCCCO2`, the “% Inhibition” value was -6% and the Z score stood at 0.78.

`OCc1nc2cc(-c3cc(F)cc4cccnc34)ccc2[nH]1`: the “% Inhibition” value worked out at 0% and the Z score was -0.01.

Regarding `CCN1CCC(NC(=O)COc2ccc(-c3ccccc3)cc2)CC1`, the “% Inhibition” value is -15% and the Z score is listed as 1.39.

Take `Oc1nc2ccc(Cl)cc2c(-c2ccccc2)c1N1CCN(c2ccccc2)CC1`: the “% Inhibition” value was -11% and the Z score amounted to 1.15.

For `Cn1nncc1C(=O)N[C@H]1CCCC[C@H]1NC(=O)c1cnnn1C`, the “% Inhibition” value is given as -15% and the Z score came out at 1.62.

For the molecule `N#CCCCS(=O)(=O)Cc1ccccc1C1CC1`, the “% Inhibition” value was 0% and the Z score is on record as 0.05.

For `CC(C)(C)c1ccc(C(=O)N2CCS(=O)(=O)C3COCCC32)s1` (stereo not drawn), the “% Inhibition” value was -3% and the Z score turned out to be 0.33.

As for `CC[C@@H]1Oc2ccc(NC(=O)Cc3ccccc3)cc2CN(CCOc2ccccc2)C1=O`, the “% Inhibition” value is -18% and the Z score came out at 2.11.

Take `COc1cc(C(=O)N2CCn3nc(CCC(=O)NCCO)cc3C2)ccn1`: the “% Inhibition” value worked out at 4% and the Z score is given as -0.59.

As for `COc1ccc(-c2nnc3n2CCN(Cc2scnc2C)C3)cc1`, the “% Inhibition” value is reported as -4% and the Z score stood at 0.84.

Turning to `C#Cc1cccc(NC(=O)C(=O)N(C)CCC#N)c1`, the “% Inhibition” value was -10% and the Z score is 1.47.

In the case of `CCCCc1nn(CC(=O)NCc2nc3c(s2)CCCC3)c(=O)n1CC`, the “% Inhibition” value was -14% and the Z score was determined as 1.82.

As to `O=C1c2ccccc2NC2(CCCCC2)N1c1ccc(F)cc1`, the “% Inhibition” value was -9% and the Z score is 1.31.

Take `Cc1ccc(-c2noc(N3CCN(C(=O)[C@@H]4CCCO4)CC3)n2)cc1`: the “% Inhibition” value is on record as -4% and the Z score amounted to 0.46.

Take `Cn1cccc1-c1nnc2n1CCN(C(=O)OC(C)(C)C)C(C)(C)C2`: the “% Inhibition” value turned out to be 5% and the Z score was -0.81.

With `CC1=CCN(C(C)C(=O)N(C)CC2COc3ccccc3O2)CC1` (stereo not drawn), the “% Inhibition” value is 3% and the Z score is recorded as -0.47.

On to `COCCN1C[C@@H](c2ncnn2-c2ccc(Cl)cc2Cl)CC1=O`, for which the “% Inhibition” value was -22% and the Z score came out at 1.98.

For `Cc1nc(C(=O)Nc2ccc3c(c2)ncn3C)c(-c2ccc(F)cc2)s1`, the “% Inhibition” value was -20% and the Z score worked out at 2.55.

For `Cc1cscc1NC(=O)N1CCn2nc(C(F)(F)F)cc2C1`, the “% Inhibition” value is 4% and the Z score is -0.67.

For the molecule `CCc1nn(C)c(Cl)c1CNCc1ccc2nsnc2c1`, the “% Inhibition” value is -5% and the Z score worked out at 0.72.

Take `Cc1ccc2[nH]c(C(=O)N3CCC(C)CC3)cc(=O)c2c1`: the “% Inhibition” value is reported as -3% and the Z score stood at 0.46.

On to `CN(C)c1ccc(N2C(=O)CC(N3CCCC(N4CCCC4=O)C3)C2=O)cc1` (stereo not drawn), for which the “% Inhibition” value was -2% and the Z score is given as 0.21.

For `O=C(N[C@@H]1CN(C(=O)Nc2cccc(C(F)(F)F)c2)CCC[C@H]1O)c1ccc(O)cc1`, the “% Inhibition” value is 8% and the Z score was -1.53.

On to `CC(NC(=O)C1COCCN1)c1c(Cl)ccc(F)c1Cl` (stereo not drawn), for which the “% Inhibition” value worked out at 6% and the Z score is given as -0.9.

With `CCC(O)CN1C(=O)C2CCCCN2C1=O` (stereo not drawn), the “% Inhibition” value is -15% and the Z score was determined as 2.19.

On to `Cc1csc2c(N3CCO[C@H](c4nccs4)C3)ncnc12`, for which the “% Inhibition” value is on record as -9% and the Z score amounted to 1.24.

With `CCc1ccc(C(=O)NC[C@H](C)n2ccnc2)[nH]1`, the “% Inhibition” value was -10% and the Z score turned out to be 0.97.

In the case of `O=C1[C@H]2CCCN2C(=O)N1Cc1ccc(O)c(Br)c1`, the “% Inhibition” value stood at 0% and the Z score is reported as -0.03.

`CC1CCN(C(=O)c2cc(NC(=O)Nc3ccccc3Br)ccc2N2CCC(C)CC2)CC1`: the “% Inhibition” value was -4% and the Z score worked out at 0.6.

In the case of `CN(C)C(=O)CCn1cc(-c2cnn(-c3ccccn3)c2)cn1`, the “% Inhibition” value is on record as -13% and the Z score worked out at 1.35.

As to `COc1cccc(-c2ccc(N3CCN(C(=O)CN(CC4CC4)C(=O)c4ccccc4F)CC3)nn2)c1`, the “% Inhibition” value was -14% and the Z score amounted to 1.54.

As to `CCn1cc(NC(=O)Cn2cc(C)c(-c3cnn(C)c3)n2)nn1`, the “% Inhibition” value was -11% and the Z score is 1.46.

With `Cc1cc(C)cc(C2=CCN(c3nc(C)c(S(N)(=O)=O)s3)CC2)c1`, the “% Inhibition” value was 13% and the Z score is recorded as -1.53.

For `CC(C)c1nnnn1CC(=O)N1CCN(c2ncccn2)CC1`, the “% Inhibition” value was -18% and the Z score is given as 2.83.

As for `Cc1nc([C@@H](N)Cc2ccc(O)cc2)n(-c2cccc3cccnc23)n1`, the “% Inhibition” value was -13% and the Z score is given as 1.68.

For `CO[C@H]1CCN(c2ncc(Cl)cc2Cl)C1`, the “% Inhibition” value came out at 0% and the Z score is reported as -0.06.

`C=CCC1(CC=C)CCCN1C(=O)c1cc(C)nc(C)n1`: the “% Inhibition” value is reported as -16% and the Z score is given as 1.75.

For `COCc1cc(N2C[C@@H]3CN(C4CCCCC4)C[C@]3(C(=O)O)C2)ncn1`, the “% Inhibition” value is listed as -21% and the Z score is 2.68.

In the case of `COc1cnc(NS(=O)(=O)c2sccc2OC)nc1`, the “% Inhibition” value was 11% and the Z score is listed as -0.98.

For `CN(Cc1sc2ccccc2c1Cl)C(=O)CCNS(C)(=O)=O`, the “% Inhibition” value is given as -3% and the Z score is 0.49.

Regarding `O=S(=O)(c1ccccc1)N1CCC(Nc2ccc(Br)cc2)CC1`, the “% Inhibition” value was determined as 34% and the Z score is recorded as -1.28.

Take `O=C(CCc1cccs1)N1CCN(C(=O)C2CCC2)[C@H]2CS(=O)(=O)C[C@H]21`: the “% Inhibition” value was -23% and the Z score is 3.14.

For the molecule `O=C(CN1C(=O)COC1=O)c1ccc2c(c1)CCCC2`, the “% Inhibition” value amounted to 5% and the Z score was -0.55.

For `CC(=O)Nc1c(C)cc(S(C)(=O)=O)cc1C`, the “% Inhibition” value is listed as -4% and the Z score was 0.46.

Take `CN(C)C(=O)CN1C(=O)[C@@H]2CC[C@H]1CN(C(=O)c1ccc3ncsc3c1)C2`: the “% Inhibition” value is -1% and the Z score amounted to 0.17.

For `C[C@H]1CC[C@H](O)CN1Cc1ccc(C(=O)O)cc1`, the “% Inhibition” value is -3% and the Z score worked out at 0.59.

For `C[C@@H](COc1ccccc1)NCCc1nc2ccccc2c(=O)[nH]1`, the “% Inhibition” value was found to be 4% and the Z score is given as -0.64.

Consider `CCN(C(=O)CN1CCC[C@H]1c1ccc2c(c1)OCCCO2)c1ccccc1C`, for which the “% Inhibition” value was -10% and the Z score is on record as 1.97.

In the case of `Cc1nn(C)c(C)c1S(=O)(=O)NCCn1nc(-c2ccccn2)c2c1CCCC2`, the “% Inhibition” value is reported as -17% and the Z score was determined as 2.18.

As for `COc1cccc(-n2cc(C(=O)O)c3c2[C@@H](c2ccc(O)cc2)CC(=O)N3)c1`, the “% Inhibition” value was -1% and the Z score came to 0.16.

On to `Cc1ccc(Oc2ccc(CN3CC[C@H](N)[C@@H](O)C3)cc2)cc1C`, for which the “% Inhibition” value came out at 7% and the Z score was -1.12.

As to `Cc1cc(Br)c(C(=O)O)cc1N`, the “% Inhibition” value is given as -13% and the Z score was found to be 1.47.

Turning to `Cc1noc(CN[C@@H](C)c2cccc(-n3cccn3)c2)n1`, the “% Inhibition” value is on record as -2% and the Z score is 0.31.

For the molecule `O=C(c1cnc(NCc2ccc3sccc3c2)c(Cl)c1)N1CCOCC1`, the “% Inhibition” value came out at 5% and the Z score is -0.7.

The values are drawn from ChEMBL document CHEMBL4888484, “Replenishing the malaria drug discovery pipeline: Screening and hit evaluation of the MMV Hit Generation Library 1 (HGL1) against asexual blood stage Plasmodium falciparum ,using a nano luciferase reporter read-out” (2022).
